# Experimental data: paper PMC4336329 (PLoS ONE, 2015)
# The whole screen tested about 310,000 compounds, of which about 2,200 (0.71%) showed an effect of 50% or more. The effect is printed as a negative number. The list shows a part of the results.
# Target: human ether-à-go-go-related gene (hERG) potassium channel (human, UniProt Q12809)
# Experiment: primary screen, population patch clamp on CHO cells stably expressing hERG
# Sequence of human ether-à-go-go-related gene (hERG) potassium channel (Q12809 whole entry, looked up): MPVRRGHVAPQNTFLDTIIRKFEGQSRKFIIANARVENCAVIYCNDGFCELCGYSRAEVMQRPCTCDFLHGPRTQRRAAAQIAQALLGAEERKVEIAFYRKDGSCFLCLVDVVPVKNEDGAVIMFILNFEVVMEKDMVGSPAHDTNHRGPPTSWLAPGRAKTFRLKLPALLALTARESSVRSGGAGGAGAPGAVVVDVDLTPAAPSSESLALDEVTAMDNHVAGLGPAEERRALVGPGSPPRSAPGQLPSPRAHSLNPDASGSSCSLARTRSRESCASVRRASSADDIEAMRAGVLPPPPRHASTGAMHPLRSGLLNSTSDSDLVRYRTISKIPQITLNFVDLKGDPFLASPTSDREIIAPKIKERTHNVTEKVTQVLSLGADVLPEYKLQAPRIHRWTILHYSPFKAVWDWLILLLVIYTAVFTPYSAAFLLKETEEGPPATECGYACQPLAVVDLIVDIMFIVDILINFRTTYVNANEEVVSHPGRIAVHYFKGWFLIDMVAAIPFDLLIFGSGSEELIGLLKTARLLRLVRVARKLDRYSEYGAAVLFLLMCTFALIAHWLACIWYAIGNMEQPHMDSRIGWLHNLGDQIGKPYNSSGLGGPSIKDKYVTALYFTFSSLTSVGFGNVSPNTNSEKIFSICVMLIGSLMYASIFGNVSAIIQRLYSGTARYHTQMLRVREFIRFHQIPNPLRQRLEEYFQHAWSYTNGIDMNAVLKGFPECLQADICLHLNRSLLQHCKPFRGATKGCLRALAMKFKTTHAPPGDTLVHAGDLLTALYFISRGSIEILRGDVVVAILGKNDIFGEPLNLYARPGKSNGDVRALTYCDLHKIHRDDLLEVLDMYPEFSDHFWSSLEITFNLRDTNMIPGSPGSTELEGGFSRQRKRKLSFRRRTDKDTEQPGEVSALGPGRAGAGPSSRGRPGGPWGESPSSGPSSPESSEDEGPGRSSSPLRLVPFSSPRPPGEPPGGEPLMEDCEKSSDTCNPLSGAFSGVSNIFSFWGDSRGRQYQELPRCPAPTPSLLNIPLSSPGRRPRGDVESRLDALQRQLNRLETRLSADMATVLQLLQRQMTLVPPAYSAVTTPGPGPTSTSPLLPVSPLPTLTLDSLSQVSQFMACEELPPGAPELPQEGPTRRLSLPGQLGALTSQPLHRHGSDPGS
row,SMILES,"hERG current change (%, negative = inhibition) at 1uM [%]"
1,CCN(CC)S(=O)(=O)c1cc(C(=O)OCC(=O)Nc2c(F)cccc2F)ccc1F,6
2,OCC1(CCOc2ccccc2)CCN(Cc2ccc(OC(F)F)cc2)CC1,-87.1
3,Oc1ccc(C2=NNC(c3ccc(O)cc3)=NN2)cc1,1.9
4,N#CCCN(C(=O)COC(=O)c1nc(Cl)ccc1Cl)c1ccccc1,9.21
5,O=C(Cn1c(=O)cnc2ccccc21)Nc1cccc(S(=O)(=O)N2CCCCC2)c1,1
6,C=CCn1c(O)c(/C=C2/C=c3ccccc3=N2)c(=O)[nH]c1=S,19.1
7,CCc1nccc2c1[nH]c1ccccc12,1.65
8,CCc1ccccc1Oc1ccc(S(=O)(=O)N2CCN(C)CC2)cn1,2.87
9,COc1ccccc1NS(=O)(=O)c1ccc(C)c(C(=O)NCc2cccnc2)c1,-0.314
10,COc1ccc(C(=O)NC(=S)Nc2ccc3oc(=O)ccc3c2)cc1[N+](=O)[O-],4.44
11,C=CCNC(=O)c1nc2ccccc2s1,-2.93
12,COc1ccc(/C=N/N=C2/NC(=O)C(c3ccccc3)(c3ccccc3)S2)cc1,12.2
13,COC(=O)CCN(C(=O)c1ccc2c(c1)OCO2)c1ccccn1,7.88
14,O=C(CSc1nncs1)Nc1ccc2c(c1)OCCO2,15
15,C=CCNC(=O)c1ccc(N(C)S(=O)(=O)c2ccc(OC)cc2)cc1,-12.8
16,O=C(NCc1ccco1)C1CCCN(S(=O)(=O)c2ccc(Br)cc2)C1 (centres unmarked),8.57
17,COc1cc(/C=N/NC(=O)c2sc(N)c(C#N)c2C)cc(Br)c1O,7.51
18,CN(C)c1nc(=S)nc(NCc2ccccc2)[nH]1,-4.71
19,O=C1CCCC(O)=C1C=NCCc1ccccc1,5.37
20,CCOC(=O)C1CCN(C(=O)C2CCCCC2)CC1,13.4
21,CC(=O)Nc1c([N+](=O)[O-])cc(C)c(Cl)c1[N+](=O)[O-],14.4
22,Cc1c(NC(=O)c2ccc(N(C)S(=O)(=O)c3ccccc3)cc2)c(=O)n(-c2ccccc2)n1C,7.12
23,Cc1cccc(C(C)C)c1NC(=O)C(C)OC(=O)Cn1cnc2c1c(=O)n(C)c(=O)n2C (centres unmarked),10.9

row,SMILES,"hERG current change (%, negative = inhibition) at 1uM [%]"
1,COc1ccc(-n2cnnc2SCC(=O)N2CCN(c3ccccc3)CC2)cc1,-15.6
2,CC1CN(C(=O)COC(=O)c2ccccc2O)CC(C)O1 (centres unmarked),15.4
3,Cc1cccc(NS(=O)(=O)c2cc3c4c(c2)CCC(=O)N4CCC3)c1,4.06
4,CC(NCC(=O)Nc1ccccc1C(=O)NC1CC1)c1ccccc1Cl (centres unmarked),3.12
5,CCN(CC)S(=O)(=O)c1cccc(C(=O)N[C@@H](C)c2nc3ccccc3[nH]2)c1,10.6
6,Cc1ccc(N2C(=O)C3ON(c4ccccc4)C(CC(C)C)C3C2=O)cc1 (centres unmarked),9.2
7,COc1ccc(C2/C=C\CN(S(=O)(=O)c3ccc(C)cc3)[C@H](Cc3ccccc3)C(=O)N2Cc2ccc(F)cc2)cc1 (some centres unmarked),6.38
8,CSc1nsc(SC)c1C(=O)Nc1ccc(C)cc1,12.6
9,COCCCN(C)C1CCN(C(=O)Nc2ccc(F)cc2)CC1,-2.37
10,CCCCCCCCCCSc1n[nH]c(N)n1,13.5
11,O=C(O)CNC(=O)CC1S/C(=N/N=C/c2ccccc2O)NC1=O (centres unmarked),-6.09
12,c1ccc(CCNc2ncnc3c2nnn3Cc2ccccc2)cc1,-2.59
13,COc1ccc(OC)c2c1cc(C(=O)N[C@@H](C)C(=O)N[C@@H](C(=O)O)c1ccccc1)n2C,15
14,CCOc1ccc(NC(=O)Cn2nnc3c(cnn3-c3ccc(F)cc3)c2=O)cc1,18
15,Cc1cc(Nc2ccc(F)cc2F)n2ncnc2n1,9.33
16,CCOC(=O)CNC(=O)c1cccnc1Oc1ccc(Cl)cc1,13.1
17,O=S(=O)(NCCCN1CCOCC1)c1ccc(Cl)s1,13.7
18,CCOc1ccc2nc(NCCNC(=O)c3cc(OC)c(OC)c(OC)c3)c(C#N)cc2c1,9.95
19,O=C(CCCN1C(=O)/C(=C/c2ccc(F)cc2)SC1=S)NC1CCS(=O)(=O)C1 (centres unmarked),17.7
20,CC1CCN(c2nc3c(N)ncnc3n2[C@@H]2O[C@H](CO)[C@@H](O)[C@H]2O)CC1,18
21,Clc1cccc(Cl)c1COc1ccccc1CNn1cnnc1,11.9
22,COc1ccc2nc(SCC(=O)NCc3ccccc3)[nH]c2c1,10.5
23,CC(C)(C)NC(=O)C(c1ccccc1)N(C(=O)CNC(=O)c1cccs1)c1cccnc1 (centres unmarked),8.51

row,SMILES,"hERG current change (%, negative = inhibition) at 1uM [%]"
1,c1ccc(-c2nc(NCc3cccnc3)c3ccccc3n2)cc1,11.5
2,CCC(C)(C)n1nnnc1C(c1cccs1)N1CCN(c2nc3ccccc3s2)CC1 (centres unmarked),13.2
3,Cc1ccc(NC(=S)NNC(=O)c2ccc(N3CCOCC3)c([N+](=O)[O-])c2)cc1C,12.9
4,CCC(=O)Nc1c(-c2ccccc2Cl)c(=O)c2ccccc2n1CC,11.5
5,COc1ccc(C)cc1NC(=O)C(=O)NNC(=O)c1ccco1,12.3
6,CCn1cc(CCC(=O)NCc2ccc(F)cc2)c2ccccc21,10.2
7,COc1ccc(-n2c(/C=C/c3ccc(O)c(OC)c3)nc3ccccc3c2=O)cc1,10.4
8,CCc1ccc(CNC(=O)c2ccc3c(c2)NC(=O)C(N2CCOCC2)S3)cc1 (centres unmarked),7.74
9,O=c1c2c(n3cnnc3n1-c1ccccc1)-c1ccccc1CC21CCCCC1,-2.98
10,CCCCCN(C(=O)CCC(=O)OCC(=O)N(CC)c1ccccc1)c1c(N)n(CCCC)c(=O)[nH]c1=O,7.91
11,Cc1cccc(N(C(=O)c2cnc3n(c2=O)CCS3)C2CCCCC2)c1,-0.574
12,Cc1cc(SCC(=O)N/N=C/c2ccc(C(=O)O)cc2)nc2ccccc12,0.168
13,CCn1cc(CN2CCC(n3nccc3NC(=O)c3ccc(OC)cc3)CC2)cn1,13
14,COc1ccc(CNC(=O)C2CC=CCC2C(=O)O)cc1OC (centres unmarked),9.92
15,Cc1cccc(OCC(=O)N2CCOCC2)c1,17.1
16,Cc1cccc(C)c1NC(=O)CSc1nnnn1C,4.84
17,COc1ccc2nc(C)cc(N3CCN(S(=O)(=O)c4ccccc4F)CC3)c2c1,-62.2
18,Cn1c(CN2CCOCC2)nnc1SCC(N)=O,15.8
19,COC(=O)c1ccc(C(=O)NCCCCO)cc1,7.1
20,Cc1cc(NC(=O)CSc2cc(Cl)ccc2Cl)n(-c2ccccc2)n1,7.36
21,C[C@]12C=CC(=O)C=C1CCC1C3CC[C@](O)(C(=O)CO)[C@@]3(C)CC3OC312 (some centres unmarked),10.7
22,N#C/C(=C/C=C/c1ccccc1)C(=O)Nc1ccccc1,5.83
23,CS(=O)(=O)c1cccc(C(=O)N(CCc2ccccc2)Cc2cccs2)c1,-14.9

row,SMILES,"hERG current change (%, negative = inhibition) at 1uM [%]"
1,CCC(=N\NC(=O)COc1ccccc1OC)/C(CC)=N/NC(=O)COc1ccccc1OC,17.6
2,O=C(NCc1ccco1)c1cc(C(=O)C2CCCCC2)c[nH]1,16.9
3,O=C1/C(=C/c2ccncc2)N=C2CCCCCN12,0.473
4,Cc1ccc(C)c(SCC(=O)OCC(=O)c2ccco2)c1,11
5,Cc1ccc(C(=O)NCc2cccnc2)cc1S(=O)(=O)N1CCCCCC1,-14.3
6,C[C@@H](NC(=O)OC(C)(C)C)C(=O)NCC1CCC(C(=O)N[C@@H](Cc2ccccc2)C(=O)O)CC1 (some centres unmarked),9.23
7,Cc1ccc(O)c(-c2cc(C(F)(F)C(F)F)nc(-c3ccccc3)n2)c1,9.55
8,Cc1ccsc1C(C(=O)NC1CCCCC1)N(C(=O)c1csnn1)C1CC1 (centres unmarked),9.66
9,CCCN(CCC)c1cc(Cl)nc(N)n1,6.41
10,COc1ccc(/C=N/Nc2cc(C)nc3ccc(Br)cc23)cc1,1.03
11,CC(=O)N1CCN(c2ccc(NC(=S)NC(=O)c3ccc(C)c([N+](=O)[O-])c3)cc2)CC1,11.7
12,CC1CCCCC1NCC(=O)NCc1ccc(F)cc1.O=C(O)C(=O)O (centres unmarked),7.92
13,COc1ccc(C2=CC(c3ccc(Cl)cc3)n3cnnc3N2)cc1OC (centres unmarked),2.53
14,Cc1cc(C)c(NC(=O)COC(=O)c2cccc3c2C(=O)c2ccccc2C3=O)c(C)c1,12.9
15,CCCn1c(SC(C)C(=O)NCC2CCCO2)nc2sc(CC)cc2c1=O (centres unmarked),3.13
16,O=S(=O)(c1ccccc1)N1CCC2(CC1)CO2,8.02
17,COc1cccc2sc(N(C)c3ccccc3)nc12,15.3
18,O=C(CCC(=O)NNC(=O)Cc1ccccc1)NCc1ccccc1,13.7
19,O=C1c2ccccc2-c2c1nc1c([n+]2[O-])CCCC1,11
20,O=C(NCCc1ccccc1)c1n[nH]c(=O)c2ccccc12,5.75
